Measurements: PMC4336329 (PLoS ONE, 2015)
Out of some 310,000 compounds screened, about 2,200 (0.71%) showed an effect of 50% or more. The effect is printed as a negative number. The list shows a part of the results. Where a SMILES comes first, the peptide text is derived from it. [ ]: non-standard residue; d: D form. The star is where a group is joined. ξ: configuration not given here. Cbz = O=C(OCc1ccccc1)*; OBn = c1ccc(CO*)cc1; ξP = O=C(O)C1CCCN1

molecular target: human ether-à-go-go-related gene (hERG) potassium channel (human, UniProt Q12809); experiment: primary screen, population patch clamp on CHO cells stably expressing hERG
Sequence (Q12809 whole entry, looked up): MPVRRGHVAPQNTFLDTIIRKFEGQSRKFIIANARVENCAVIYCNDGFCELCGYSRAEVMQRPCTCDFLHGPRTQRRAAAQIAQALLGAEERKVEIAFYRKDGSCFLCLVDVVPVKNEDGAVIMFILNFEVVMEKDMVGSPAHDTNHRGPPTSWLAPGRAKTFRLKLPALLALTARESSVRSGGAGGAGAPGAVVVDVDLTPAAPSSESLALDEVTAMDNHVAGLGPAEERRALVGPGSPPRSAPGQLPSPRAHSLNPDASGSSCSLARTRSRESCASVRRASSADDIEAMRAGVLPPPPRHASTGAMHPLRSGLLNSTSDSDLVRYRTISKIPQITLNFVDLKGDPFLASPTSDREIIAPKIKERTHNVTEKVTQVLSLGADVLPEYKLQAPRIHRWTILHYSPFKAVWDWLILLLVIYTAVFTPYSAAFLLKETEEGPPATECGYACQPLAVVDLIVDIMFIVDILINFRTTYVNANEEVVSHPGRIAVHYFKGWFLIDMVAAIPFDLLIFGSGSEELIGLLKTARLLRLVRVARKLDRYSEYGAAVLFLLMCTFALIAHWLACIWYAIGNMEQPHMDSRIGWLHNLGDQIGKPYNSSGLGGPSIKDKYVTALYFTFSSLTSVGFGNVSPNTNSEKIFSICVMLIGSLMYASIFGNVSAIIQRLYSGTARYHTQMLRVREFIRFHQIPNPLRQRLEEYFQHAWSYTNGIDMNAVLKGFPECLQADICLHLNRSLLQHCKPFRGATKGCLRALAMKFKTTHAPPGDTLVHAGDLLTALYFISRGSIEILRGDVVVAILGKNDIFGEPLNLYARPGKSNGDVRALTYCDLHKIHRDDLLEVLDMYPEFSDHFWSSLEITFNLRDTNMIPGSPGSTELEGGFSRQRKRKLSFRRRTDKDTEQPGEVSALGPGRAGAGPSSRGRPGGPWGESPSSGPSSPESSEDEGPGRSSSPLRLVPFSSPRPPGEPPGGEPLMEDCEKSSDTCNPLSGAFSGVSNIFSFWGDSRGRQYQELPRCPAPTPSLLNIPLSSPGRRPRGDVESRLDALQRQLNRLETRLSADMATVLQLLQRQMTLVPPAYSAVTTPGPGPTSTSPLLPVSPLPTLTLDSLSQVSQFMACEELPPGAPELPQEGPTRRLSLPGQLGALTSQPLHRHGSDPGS

Structure (SMILES)	hERG current change (%, negative = inhibition) at 1uM [%]
Cc1cccc(CCNC(=O)c2cc(S(=O)(=O)N3CCCCC3)c[nH]2)c1	6.66
COC(=O)c1cn(-c2ccccc2)nc1C(=O)OC	2.12
O=C(CNC(=O)OCc1ccccc1)NCC(=O)N1CCCC1C(=O)OCc1ccccc1 (stereo not drawn) (Cbz-Gly-Gly-[ξP]-OBn)	4
CCOC(=O)[C@H](CCc1ccccc1)N[C@@H](C)C(=O)N1[C@H](C(=O)O)C[C@@H]2CCC[C@@H]21	13.5
O=C(COC(=O)c1ccc(NS(=O)(=O)c2cccs2)cc1)NCC1CCCO1 (stereo not shown)	8.91
COCC(=O)N1CCC(n2nccc2NC(=O)c2ccccc2OC)CC1	14.1
COc1ccc(CN2C(=O)CCC(C(=O)O)C2c2ccccc2)cc1 (stereo not shown)	25.5
O=C(C/C=N/OCc1ccc(Cl)cc1Cl)c1ccc(Cl)cc1	14.8
Cc1nc2ccc(C(=O)Nc3ccccc3Cl)cc2s1	11.3
CCN(CC)S(=O)(=O)c1ccc(N2CCCC2)c(NC(=O)C2CSC3(C)CCC(=O)N23)c1 (stereo not shown)	5.79
O=C(O)CCC(=O)N1N=C(c2cccs2)CC1c1cn(-c2ccccc2)nc1-c1ccccc1 (stereo not shown)	1.74
O=C(/C=C/c1ccccc1)CC(O)(c1ccccc1)C(F)(F)C(F)F (stereo not shown)	12.4
CCCOC(=O)c1[nH]c2c(c1C)C(=O)CC(c1ccc(OC)c(OC)c1)C2 (stereo not shown)	1.81
S=c1[nH]nc(Cn2nnc3ccccc32)n1-c1ccc(Cl)cc1	8.81
CCCc1cc2c(cc1NC(=O)c1ccc(C)cc1)OCO2	1.44
OCc1ccc(OCCCOc2cccc3cccnc23)cc1	11.7
CC(=O)Nc1cc(C(=O)N2CCCC2)ccc1Sc1ccc(C)cc1	-17.8
CCOCCCNC(=O)c1cn(CC)c2ccc(S(=O)(=O)N(C)C3CCCCC3)cc2c1=O	11.3
Cc1cc(NC(=O)Nc2cc(F)ccc2C)n(C)n1	13.6
COc1ccccc1N1CCN(S(=O)(=O)c2cccc(F)c2)CC1	15
COc1ccc(CC(C)N2CCN(Cc3ccccc3)CC2)c(OC)c1 (stereo not shown)	-36.6
COc1ccc(CC2SC(=Nc3ccc(F)cc3)NC2=O)cc1 (stereo not shown)	12.1
CCCSc1nnc(-c2ccccc2N)c(=O)[nH]1	6.68
CC(=O)CCSc1nnc(-c2cccc(S(=O)(=O)N3CCOCC3)c2)o1	9.82
Cc1ccccc1NC(=S)NCC1CCN(C(C)c2ccccc2)C1 (stereo not shown)	10.9
CNS(=O)(=O)c1cc(NC(=O)c2cncn2-c2ccccc2)ccc1C	6.11
CC(C)n1cc(C(N)=S)c(=O)n(Cc2ccccc2)c1=O	12.5
Cc1nn(C)cc1/C=N\NC(=O)Cc1ccc([N+](=O)[O-])cc1	-1.5

Structure (SMILES)	hERG current change (%, negative = inhibition) at 1uM [%]
COc1cccc(C(=O)Nc2cc(NC(=O)c3cccs3)ccc2C)c1	8.92
Nc1ncnc2c1nc(Sc1ccc(Cl)cc1)n2[C@@H]1O[C@@H]2COP(=O)([O-])O[C@H]2[C@H]1O.[Na+]	3.93
COc1ccc(Cn2c(=O)[nH]c3cc(C(=O)NCCCN4CCCCCC4)ccc3c2=O)cc1	10.8
Cc1ccc(S(=O)(=O)N2CCCC2)cc1C(=O)NCCOc1ccccc1	8.99
Cc1ccc(-c2noc(COc3ccccc3C)n2)cc1	13.3
O=C(NC12CC3CC(CC(C3)C1)C2)c1cc(F)c(F)c(F)c1F	22.8
O=C(Nc1ccc(C(=O)N2CCN(c3ccc(Cl)cc3)CC2)cc1)C1=CSCCO1	10.9
COc1cc2ccccc2cc1C(=O)N1CC(C)CC(C)C1 (stereo not shown)	-3.89
CC1(C)CC(=O)C(C=NCCN2CCN(C(=O)c3ccc(F)cc3)CC2)=C(O)C1	11.4
CCC(C)(C)n1nnnc1CN1CCC(n2c(C)nc3cc(C(F)(F)F)ccc32)CC1	2.56
CN(C(=O)COc1ccc(Cl)cc1Cl)c1nnc(C23CC4CC(CC(C4)C2)C3)s1	13.2
O=C(CSc1ccccn1)Nc1ccc(F)c([N+](=O)[O-])c1	11
COC(=O)C(Cc1c[nH]c2ccccc12)NC(=O)c1cccs1 (stereo not shown)	14
CC(Oc1ccccc1)C(=O)Nc1nnc(S(=O)(=O)N2CCCCC2)s1 (stereo not shown)	11.5
Cc1[nH]c2ccccc2c1CCNS(=O)(=O)c1ccc(S(N)(=O)=O)cc1	9.54
CCOC(=O)c1c(-c2ccccc2)nc2ccccn12	10.5
COc1ccc(CN2CCN(CCc3ccccc3)C(CCO)C2)c(Cl)c1OC (stereo not shown)	-28.1
Cc1cccc(C(=O)OCC(=O)N2CCCC2=O)c1O	3.33
CCN(CC)C(=O)c1[nH]cnc1C(=O)N[C@@H](CCCCNC(=O)OC(C)(C)C)C(=O)OC(C)(C)C	11.4
CCc1ccc(N(C(=O)c2csnn2)C(C(=O)NC2CCCCC2)c2cccnc2)cc1 (stereo not shown)	11.3
N#CCCCSC1=C(C#N)C(c2ccccc2Cl)CC(=O)N1 (stereo not shown)	-11.5
COc1ccc(CCNC(=S)NC(=O)c2ccccc2)cc1C	11.1
COc1cc(C(=O)Nc2cccc(S(=O)(=O)N3CCCC3)c2)c([N+](=O)[O-])cc1OC	9.55
COc1ccc(N2CCN(S(=O)(=O)c3ccc(Br)s3)CC2)cc1	-3.97
Cc1oc(-c2cccc(Cl)c2)nc1CS(=O)(=O)CC(=O)NC1CCCC1	11.2
O=C(c1ccco1)N1CCN(Cc2nc3cc(Cl)ccc3c(=O)[nH]2)CC1	-43.5
O=C1COc2ccc(S(=O)(=O)N3CCN(c4ccccc4F)CC3)cc2N1	7.78
